# Measurements taken from PubChem BioAssay AID504333 (National Center for Advancing Translational Sciences (NCATS), 2011).
# The whole screen tested about 360,000 compounds, of which about 16,000 (4.4%) were called active. Inconclusive means that the source gave no clear call. Such entries were picked first, then a sample of the others. Calls come from the whole dose curve; as a rule, active = well fitted inhibition curve with a large enough effect; inconclusive = small, poorly fitted or top-dose-only effect; inactive = no such curve, though single readings can be large or run the other way. Where the call is inconclusive, the potency comes from a doubtful curve fit.
# Target: Bromodomain adjacent to zinc finger domain protein 2B (Homo sapiens) (UniProt Q9UIF8)
# Assay: qHTS Assay for Inhibitors of BAZ2B; note: nearly all actives have a fitted effect of over 60% in size
# Settings: AlphaScreen BAZ2B-H3K14Ac peptide displacement; activity change, negative = inhibition: at 114 µM (top of the series)
# In short: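 AlphaScreen luminescence quantifies BAZ2B engagement of H3K14Ac peptide; the protein and biotinylated peptide are both at 50 nM final, buffer PBS pH 7.4 with 0.01% Tween-20, all steps at room temperature.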
# % is set by controls: 0 for no effect and ±100 for the full control effect; potency is the fitted concentration of half-maximal effect; tags give direction and shape of the fitted curve.
# Sequence of UniProt Q9UIF8 (Q9UIF8 whole entry, looked up, the tested form may be a part): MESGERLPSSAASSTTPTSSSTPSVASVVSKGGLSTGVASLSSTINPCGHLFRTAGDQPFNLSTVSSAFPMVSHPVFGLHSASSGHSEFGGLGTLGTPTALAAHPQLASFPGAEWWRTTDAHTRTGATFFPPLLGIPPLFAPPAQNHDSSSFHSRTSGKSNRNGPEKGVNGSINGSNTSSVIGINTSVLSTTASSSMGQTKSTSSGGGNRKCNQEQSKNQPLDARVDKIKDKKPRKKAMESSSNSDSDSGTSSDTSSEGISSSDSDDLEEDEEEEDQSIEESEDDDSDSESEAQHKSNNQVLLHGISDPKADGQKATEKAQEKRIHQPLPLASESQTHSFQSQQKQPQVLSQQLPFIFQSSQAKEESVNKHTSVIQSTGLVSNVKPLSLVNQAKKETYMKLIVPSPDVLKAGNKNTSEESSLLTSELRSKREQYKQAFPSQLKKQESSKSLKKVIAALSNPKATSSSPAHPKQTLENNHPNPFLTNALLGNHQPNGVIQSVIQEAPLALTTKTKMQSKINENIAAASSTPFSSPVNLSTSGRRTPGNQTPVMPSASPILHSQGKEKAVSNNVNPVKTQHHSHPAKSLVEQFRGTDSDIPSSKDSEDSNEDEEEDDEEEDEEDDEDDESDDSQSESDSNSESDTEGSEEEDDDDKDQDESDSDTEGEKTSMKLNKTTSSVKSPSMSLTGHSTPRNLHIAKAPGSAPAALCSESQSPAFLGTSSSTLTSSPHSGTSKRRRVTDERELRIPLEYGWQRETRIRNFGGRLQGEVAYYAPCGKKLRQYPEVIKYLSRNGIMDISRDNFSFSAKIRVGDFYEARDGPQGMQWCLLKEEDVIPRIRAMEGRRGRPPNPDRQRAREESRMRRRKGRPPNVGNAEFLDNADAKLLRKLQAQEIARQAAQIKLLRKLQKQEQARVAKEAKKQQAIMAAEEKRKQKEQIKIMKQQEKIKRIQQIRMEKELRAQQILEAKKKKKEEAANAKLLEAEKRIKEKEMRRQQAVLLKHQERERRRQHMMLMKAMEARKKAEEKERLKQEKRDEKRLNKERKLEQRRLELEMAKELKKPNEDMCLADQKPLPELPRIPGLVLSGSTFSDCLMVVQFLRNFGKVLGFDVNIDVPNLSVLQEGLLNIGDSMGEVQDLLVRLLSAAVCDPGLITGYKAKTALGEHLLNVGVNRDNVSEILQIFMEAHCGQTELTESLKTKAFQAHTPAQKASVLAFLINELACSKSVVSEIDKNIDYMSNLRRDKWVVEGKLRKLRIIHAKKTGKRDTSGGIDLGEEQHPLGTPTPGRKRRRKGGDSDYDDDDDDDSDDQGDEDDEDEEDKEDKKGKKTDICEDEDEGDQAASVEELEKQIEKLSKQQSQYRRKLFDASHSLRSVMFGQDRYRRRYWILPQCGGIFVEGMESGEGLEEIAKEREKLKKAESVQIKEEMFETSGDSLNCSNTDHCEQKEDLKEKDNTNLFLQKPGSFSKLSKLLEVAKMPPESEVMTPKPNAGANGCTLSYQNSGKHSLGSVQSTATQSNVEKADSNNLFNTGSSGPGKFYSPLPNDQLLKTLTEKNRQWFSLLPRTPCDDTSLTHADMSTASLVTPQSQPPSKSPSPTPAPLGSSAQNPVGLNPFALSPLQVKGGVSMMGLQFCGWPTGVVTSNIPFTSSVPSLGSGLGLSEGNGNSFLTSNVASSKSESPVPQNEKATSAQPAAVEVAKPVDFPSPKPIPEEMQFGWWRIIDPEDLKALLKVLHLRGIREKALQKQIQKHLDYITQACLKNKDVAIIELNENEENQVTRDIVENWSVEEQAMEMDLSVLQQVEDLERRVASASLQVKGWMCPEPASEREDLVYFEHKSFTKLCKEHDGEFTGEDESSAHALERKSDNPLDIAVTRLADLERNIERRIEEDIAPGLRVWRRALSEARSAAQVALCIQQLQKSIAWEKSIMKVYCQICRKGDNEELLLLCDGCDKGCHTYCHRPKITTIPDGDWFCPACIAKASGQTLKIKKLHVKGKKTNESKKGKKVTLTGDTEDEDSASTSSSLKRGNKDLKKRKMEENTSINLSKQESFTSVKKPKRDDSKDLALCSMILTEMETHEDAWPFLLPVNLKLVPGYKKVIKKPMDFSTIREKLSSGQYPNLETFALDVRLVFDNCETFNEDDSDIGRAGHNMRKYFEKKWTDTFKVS
SMILES,Potency,"activity change, negative = inhibition"
CCOC(=O)c1c(=O)n(O)c2ccc(C)cc2[n+]1[O-],"inconclusive: 89.1 µM [inhibitor, single point]",–
Cc1c(OC(C)C(=O)NC(Cc2c[nH]c3ccc(O)cc23)C(=O)O)ccc2c1oc(=O)c1ccccc12 (stereo not drawn),"inconclusive: 79.4 µM [inhibitor, single point]",–
COc1ccc(S(=O)(=O)NCCN2CCOCC2)cc1[N+](=O)[O-],–,inactive: -1.31%
Nc1ccc(N=Nc2ccccc2)c2cccnc12,active: 7.94 µM,–
CCOC(=O)C1=C(C)N=c2s/c(=C\c3ccc(OCC(=O)O)cc3)c(=O)n2C1c1ccc(Cl)cc1 (stereo not drawn),active: 7.94 µM,–
O=C(CNC(=O)c1ccc(F)cc1)Nc1ccccc1C(F)(F)F,–,inactive: -20.7%
COc1ccc2nc(C)c(C(=O)OCCN(C)C)cc2c1,–,inactive: 4.85%
COc1ccc(Cl)c2c1[nH]c1nc(SCc3ccccn3)nnc12,–,inactive: -25.4%
O=C(Nc1ccccc1F)c1ccc(-c2cccc([N+](=O)[O-])c2)o1,–,inactive: -20%
CC(=O)Nc1cccc(/C(C)=N/NS(=O)(=O)c2ccc(C)cc2)c1,–,inactive: -6.95%
OCC[C@H]1C[C@@H](O)[C@H](O)[C@]2(OCc3ccccc32)O1,–,inactive: -3.94%
CCCOc1ccc(N2C(=O)CC(N(O)c3ccccc3)C2=O)cc1 (stereo not drawn),–,inactive: -1.95%
Cc1ccc(C2OC3=C(C(=O)CC(C)(C)C3)C(N)=C2C#N)o1 (stereo not drawn),"inconclusive: 79.4 µM [inhibitor, single point]",–
CCC(Oc1ccccc1OC)C(=O)Nc1ccc2c(c1)OCCO2 (stereo not drawn),–,inactive: -2%
O=C(COC(=O)C1CC(=O)N(Cc2ccco2)C1)c1ccc(OC(=O)c2ccco2)cc1 (stereo not drawn),active: 25.1 µM,–
CN(C)S(=O)(=O)c1ccc(NC(=O)CCCNC(=O)c2ccc(Cl)cc2)cc1,–,inactive: 3.84%
CCCS(=O)(=O)c1c(S(=O)(=O)CCC)c2c3ccccc3ccn2c1C(=O)OC,–,inactive: -6.1%
O=C1OC2(CCCCC2)CC2=C1C1O[C@](c3ccsc3)(Cc3ccccc31)O2,"inconclusive: 12.6 µM [inhibitor, single point]",–
O=C1c2ccccc2NC(c2cccc([N+](=O)[O-])c2)N1O (stereo not drawn),"inconclusive: 79.4 µM [inhibitor, single point]",–
Cc1ccc(-c2cc(N)n[nH]2)cc1,"inconclusive: 89.1 µM [inhibitor, single point]",–
CCN(CC)c1ccc(S(=O)(=O)N2CCOCC2)cc1NC(=O)CSc1nncs1,–,inactive: 10.8%
COc1ccc2[nH]c(=O)c(-c3nnn(-c4ccccc4)n3)cc2c1,–,inactive: 0.226%
Cc1cc(C)c(O)c(-c2cc(C(=O)Nc3cccnc3)[nH]n2)c1,"inconclusive: 35.5 µM [inhibitor, full curve, poor fit]",–
CSc1nnc(N2C(=O)C(O)=C(C(=O)c3ccco3)C2c2ccccc2)s1 (stereo not drawn),"inconclusive: 39.8 µM [inhibitor, partial curve]",–

SMILES,Potency,"activity change, negative = inhibition"
O=C(NCC(c1cccs1)N1CCOCC1)c1ccc(Cl)c([N+](=O)[O-])c1 (stereo not drawn),–,inactive: -3.54%
O=C(O)CCN1C(=O)C2C3CC(C2C1=O)C1C(c2ccccc2)c2sc(=O)n(-c4ccccc4)c2SC31 (stereo not drawn),"inconclusive: 56.2 µM [inhibitor, partial curve]",–
COc1ccc(N2CCN(c3oc(COc4ccccc4)nc3C#N)CC2)cc1,active: 10 µM,–
CCOC(=O)c1cc(S(=O)(=O)N2CCN(c3ccc(C)cc3C)CC2)[nH]n1,active: 50.1 µM,–
O=[N+]([O-])c1ccc(/C=C/c2ccc3ccccc3n2)cc1,"inconclusive: 35.5 µM [inhibitor, partial curve]",–
Cc1ccc(C)c(NC(=O)CSC2=Nc3ccccc3N=C(c3ccc(F)cc3)C2)c1,"inconclusive: 79.4 µM [inhibitor, single point]",–
CSC1=NC(C)(C)C=C(/C=C/c2ccc(Cl)cc2Cl)N1,"inconclusive: 50.1 µM [inhibitor, partial curve]",–
COc1cc(C(=O)N2CCc3c([nH]c4ccccc34)C2c2ccc(C)cc2)cc(OC)c1OC (stereo not drawn),"inconclusive: 25.1 µM [inhibitor, full curve]",–
COc1cc(Br)c(CC(=O)NC2CC2)cc1OC,–,inactive: 0.171%
COc1cc([N+](=O)[O-])cc2sc(NC(=O)C3CC3)nc12,"inconclusive: 89.1 µM [inhibitor, single point]",–
CC(C)N1CCc2c(sc(NC(=O)c3ccc(S(=O)(=O)N4CCc5ccccc54)cc3)c2C(N)=O)C1,"inconclusive: 44.7 µM [inhibitor, partial curve]",–
Cc1c(-c2nsc(NC(=O)c3cccc(Cl)c3)n2)nnn1-c1ccccc1C(F)(F)F,–,inactive: -1.61%
Cc1ccc(/C=C/C(=O)N2CCN(S(=O)(=O)c3ccc(C)c(C)c3)CC2)o1,"inconclusive: 50.1 µM [inhibitor, partial curve]",–
Cc1ccc2c(CN3CCCCC3)cc(=O)oc2c1C,–,inactive: 3.63%
O=C(O)c1cc(C(=O)O)cc(N2C(=O)CSC2=S)c1,"inconclusive: 79.4 µM [inhibitor, single point]",–
Cc1cc(Nc2ccccc2)c2c([N+](=O)[O-])c(C)cc(C)c2n1,active: 31.6 µM,–
COC(=O)CCCC1=CC2=C(c3ccccc3)C(=O)C(C)(OC(=O)C3CCCC3)C(=O)C2=CN1Cc1ccc(OC)cc1 (stereo not drawn),"inconclusive: 50.1 µM [inhibitor, partial curve]",–
CCCOc1ccc(C(=O)Nc2ccc(Cl)c(-c3nc4ncccc4o3)c2)cc1,–,inactive: 0.833%
O=C(CSc1nc(-c2cccs2)nc2cc(=O)[nH]n12)Nc1ccccc1F,"inconclusive: 89.1 µM [inhibitor, single point]",–
CCOc1ccc(-c2nc(N)nc(C)c2-c2ccc(Cl)cc2)c(O)c1,"inconclusive: 50.1 µM [inhibitor, partial curve]",–
CCc1nnc(NC(=O)CSc2ccc(Cl)cc2)s1,"inconclusive: 89.1 µM [inhibitor, single point]",–
COc1ccc(NC(=O)Cn2cnc3ccc(S(=O)(=O)N4CCC(C)CC4)cc3c2=O)cc1OC,–,inactive: -36.6%
COc1cccc(-c2nc(SCC(=O)NC3CCCC3)c(-c3ccccc3)[nH]2)c1,–,inactive: -38.4%
CCOc1ccc(-c2nc(SCC(=O)NC3CCCC3)c(-c3ccccc3)[nH]2)cc1OC,"inconclusive: 39.8 µM [inhibitor, full curve, poor fit]",–
